Measurements from patent CN101928345A (USTC UNIV SCIENCE TECH CN, dated 2010).

Experiments:
GST-EPI = GST-EPI (UniProt P04626); assay: ELISA, GST-EPI coated, 293T supernatant, reference 293T-expressed ChA21
[1] = target: T1, Recombinant Human ErbB2/Fc Chimera (human, UniProt P04626 partial chain); assay: SPR, Biacore 3000, ErbB2/Fc chimera immobilised on CM-5 chip, antibody injected
T1 construct: Bought reagent; also called 抗原Her2; R and D Systems 1129-ER; not shown: Fc part (and any linker or tag) of the bought chimera

| Binder | 相对亲和力 (EC50 of ChA21 / EC50 of the mutant) (GST-EPI) | Kd [1] [µM] |
| --- | --- | --- |
| 人源化抗体H1-1 (antibody, human IgG1) DIVLSQSPDSLAVSLGERVTLNCKSSQTLLYSNNQKNYLAWYQQKPGQSPKLLISWAFTRKSGVPDRFSGSGSGTDFTLTISSVQAEDVAVYYCQQYSNYPWTFGAGTKLELKRGGGGSGGGGSGGGGSGGGGSQVQLVQSGAEVVKPGASVKISCKASGYSFTGYFINWVKQNPGQRLEWIGHISSSYATSTYNERFKGKATLTVDTSASTAYVELSSLRSEDTAVYFCVRSGNYEEYAMDYWGQGTLVTVSSAAA[letters of human IgG1 Fc not shown] | 0.95 |  |
| 人源化抗体H1-V1 (antibody, human IgG1) DIVLTQSPDSLAVSLGERVTINCKSSQTLLYSNNQKNYLAWYQQKPGQSPKLLISWAFTRKSGVPDRFSGSGSGTDFTLTISSVQAEDVAVYYCQQYSNYPWTFGAGTKLEIKRGGGGSGGGGSGGGGSGGGGSQVQLVQSGAEVVKPGASVKISCKASGYSFTGYFINWVKQNPGQRLEWIGHISSSYATSTYNERFKGKATLTVDTSASTAYMELSSLRSEDTAVYYCVRSGNYEEYAMDYWGQGTLVTVSSAAA[letters of human IgG1 Fc not shown] | 0.92 |  |
| 人源化抗体H1-2 (antibody, human IgG1) DIVLTQSPDSLAVSLGERVTINCKSSQTLLYSNNQKNYLAWYQQKPGQSPKLLISWAFTRKSGVPDRFSGSGSGTDFTLTISSVQAEDVAVYYCQQYSNYPWTFGAGTKLEIKRGGGGSGGGGSGGGGSGGGGSQVQLVQSGAEVVKPGASVKISCKASGYSFTGYFINWVKQNPGQRLEWIGHISSSYATSTYNQKFKGKATLTVDTSASTAYMELSSLRSEDTAVYYCVRSGNYEEYAMDYWGQGTLVTVSSAAA[letters of human IgG1 Fc not shown] | 0.93 |  |
| 人源化抗体H2-1 (antibody, human IgG1) DIQLTQSPSSLSASVGDRVTITCRSSQTLLYSNNQKNYLAWYQQKPGKAPKLLISWAFTRKSGVPSRFSGSGSGTDFTLTISSLQPEDFATYYCQQYSNYPWTFGQGTKVEIKRGGGGSGGGGSGGGGSGGGGSEVQLVESGGGLVQPGGSLRLSCAASGYSFTGYFINWVRQAPGKGLEWVAHISSSYATSTYADSVKGRFTISVDTSKNTAYLQMNSLRAEDTAVYYCVRSGNYEEYAMDYWGQGTLVTVSSAAA[letters of human IgG1 Fc not shown] | 0.4 |  |
| 人源化抗体H1-2 (antibody, human IgG1, scFv-Fc format; H1-V1 with Kabat H61 E>Q and H62 R>K; the SPR used the antibody at stated concentrations; also called 人源化突变体H1-2) DIVLTQSPDSLAVSLGERVTINCKSSQTLLYSNNQKNYLAWYQQKPGQSPKLLISWAFTRKSGVPDRFSGSGSGTDFTLTISSVQAEDVAVYYCQQYSNYPWTFGAGTKLEIKRGGGGSGGGGSGGGGSGGGGSQVQLVQSGAEVVKPGASVKISCKASGYSFTGYFINWVKQNPGQRLEWIGHISSSYATSTYNQKFKGKATLTVDTSASTAYMELSSLRSEDTAVYYCVRSGNYEEYAMDYWGQGTLVTVSSAAA[human IgG1 Fc left out] |  | 0.01 |
